The record followed here is the supplement of paper PMC4604168 (melanoma cell lines).

The list shows a part of the results. Repeats are few or missing, and single values can be far off.
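Note: cell number obtained by counting DAPI-stained nuclei in high-throughput microscope images with image analysis software, screen run in 1,536-well plates.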

The experiment concerns WM115. The experiment in a line: cell count relative to DMSO control; melanoma cells; higher = more viable cells. Particulars: library dose: low library concentration; 72 h.
In the case of `CC(=O)c1c(C)c2cnc(Nc3ccc(N4CCNCC4)cn3)nc2n(C2CCCC2)c1=O` [palbociclib] + C=CCn1c(=O)c2cnc(Nc3ccc(N4CCN(C)CC4)cc3)nc2n1-c1cccc(C(C)(C)O)n1 [MK1775] (first compound 0.04 µM, partner dose 0.02 µM), the cell count is 66.6%. The compound `CC(=O)c1c(C)c2cnc(Nc3ccc(N4CCNCC4)cn3)nc2n(C2CCCC2)c1=O` [palbociclib] + Oc1cc(-c2nc(-c3ccccc3)[nH]c2-c2ccncc2)ccc1Cl [L779450] (first compound 0.04 µM, partner dose 0.2 µM) showed a cell count of 71.7%. As for `Nc1ncn([C@H]2C[C@H](O)[C@@H](CO)O2)c(=O)n1` [decitabine] + c1cc(-c2cnn3cc(-c4ccc(OCCN5CCCCC5)cc4)cnc23)ccn1 [Dorsomorphin] (first compound 0.1 µM, partner dose 0.4 µM), the figure is 86.9%; as for `Nc1ncn([C@H]2C[C@H](O)[C@@H](CO)O2)c(=O)n1` [decitabine] + O=C(Nc1ccccc1)c1cc([N+](=O)[O-])ccc1Cl [GW9662] (first compound 0.1 µM, partner dose 2 µM), 91.6%; as for `Nc1ncn([C@H]2C[C@H](O)[C@@H](CO)O2)c(=O)n1` [decitabine] + O=C(Nc1cccc(Cl)c1)Nc1ncc(CCNc2ncnc3ccsc23)s1 [SNS314] (first compound 0.1 µM, partner dose 0.0008 µM), 54.9%. As for `CC(=O)O[C@@]12CO[C@@H]1C[C@H](O)[C@@]1(C)C(=O)[C@H](O)C3=C(C)[C@@H](OC(=O)[C@H](O)[C@@H](NC(=O)OC(C)(C)C)c4ccccc4)C[C@@](O)([C@@H](OC(=O)c4ccccc4)[C@H]21)C3(C)C` [Docetaxel] + Cn1cncc1[C@@](N)(c1ccc(Cl)cc1)c1ccc2c(c1)c(-c1cccc(Cl)c1)cc(=O)n2C [tipifarnib] (first compound 0.0001 µM, partner dose 0.01 µM), the figure is 69%.

In turn, `Nc1nc(F)nc2c1ncn2[C@@H]1O[C@H](CO)[C@@H](O)[C@@H]1O` [fludarabine] + CC1(C)NC(=O)N(c2ccc([N+](=O)[O-])c(C(F)(F)F)c2)C1=O [nilutamide] (first compound 0.2 µM, partner dose 1 µM) had a cell count of 92.9%. The result for `Nc1ncn([C@H]2C[C@H](O)[C@@H](CO)O2)c(=O)n1` [decitabine] + O=C(CCCCCCC(=O)Nc1ccccc1)NO [vorinostat] (first compound 0.1 µM, partner dose 0.08 µM) reads 80%; that for `CC(=O)c1c(C)c2cnc(Nc3ccc(N4CCNCC4)cn3)nc2n(C2CCCC2)c1=O` [palbociclib] + COc1ccc(-c2ccc3c(N4CCOCC4)nc(N4C[C@@H](C)O[C@@H](C)C4)nc3n2)cc1CO [KU0063794] (first compound 0.04 µM, partner dose 0.02 µM), 83.4%.

As to `Nc1nc(F)nc2c1ncn2[C@@H]1O[C@H](CO)[C@@H](O)[C@@H]1O` [fludarabine] + O=C(O)C(=O)Nc1sc2c(c1C(=O)O)CCNC2 [TCS401] (first compound 0.2 µM, partner dose 1.66667 µM), the cell count was determined as 93.3%. `Nc1ncn([C@H]2C[C@H](O)[C@@H](CO)O2)c(=O)n1` [decitabine] + COc1cc(Nc2ncc(F)c(Nc3ccc4c(n3)NC(=O)C(C)(C)O4)n2)cc(OC)c1OC [Tamatinib] (first compound 0.1 µM, partner dose 0.4 µM): the cell count amounted to 65.2%. `Nc1nc(F)nc2c1ncn2[C@@H]1O[C@H](CO)[C@@H](O)[C@@H]1O` [fludarabine] + CCc1ccc(CCOc2ccc(CC3SC(=O)NC3=O)cc2)nc1 [pioglitazone] (first compound 0.2 µM, partner dose 2 µM) registered a cell count of 96.1%.

With `Nc1ccn([C@@H]2O[C@H](CO)[C@@H](O)C2(F)F)c(=O)n1` [gemcitabine] + O=C(Nc1cccc(Cl)c1)Nc1ncc(CCNc2ncnc3ccsc23)s1 [SNS314] (first compound 0.0004 µM, partner dose 0.0008 µM), the cell count amounted to 77.6%.

With `Nc1ccn([C@@H]2O[C@H](CO)[C@@H](O)C2(F)F)c(=O)n1` [gemcitabine] + CN(C)S(=O)(=O)c1ccc2c(c1)/C(=C/c1cc3c([nH]1)CCCC3)C(=O)N2 [SU6656] (first compound 0.0004 µM, partner dose 0.4 µM), the cell count stood at 85.1%.

`Nc1ncn([C@H]2C[C@H](O)[C@@H](CO)O2)c(=O)n1` [decitabine] + COc1cc(N2CCC(N3CCN(C)CC3)CC2)ccc1Nc1ncc(Cl)c(Nc2ccccc2S(=O)(=O)C(C)C)n1 [NVP-TAE684] (first compound 0.1 µM, partner dose 0.08 µM): the cell count came to 72.7%. As for `CC(=O)O[C@@]12CO[C@@H]1C[C@H](O)[C@@]1(C)C(=O)[C@H](O)C3=C(C)[C@@H](OC(=O)[C@H](O)[C@@H](NC(=O)OC(C)(C)C)c4ccccc4)C[C@@](O)([C@@H](OC(=O)c4ccccc4)[C@H]21)C3(C)C` [Docetaxel] + CCCCCCCCCCCC1=C(O)C(=O)C=C(O)C1=O [Embelin] (first compound 0.0001 µM, partner dose 1.2 µM), the figure is 59.5%; as for `CC(=O)c1c(C)c2cnc(Nc3ccc(N4CCNCC4)cn3)nc2n(C2CCCC2)c1=O` [palbociclib] + O=C(Nc1cccc(Cl)c1)Nc1ncc(CCNc2ncnc3ccsc23)s1 [SNS314] (first compound 0.04 µM, partner dose 0.0008 µM), 54.8%; as for `CC(=O)O[C@@]12CO[C@@H]1C[C@H](O)[C@@]1(C)C(=O)[C@H](O)C3=C(C)[C@@H](OC(=O)[C@H](O)[C@@H](NC(=O)OC(C)(C)C)c4ccccc4)C[C@@](O)([C@@H](OC(=O)c4ccccc4)[C@H]21)C3(C)C` [Docetaxel] + N#Cc1c(O)c2c(-c3ccc(-c4ccccc4O)cc3)csc2[nH]c1=O [A769662] (first compound 0.0001 µM, partner dose 2 µM), 66.3%. The result for `Nc1ccn([C@@H]2O[C@H](CO)[C@@H](O)C2(F)F)c(=O)n1` [gemcitabine] + CC(C)CCN1c2nc(Nc3cc(F)c(O)c(F)c3)ncc2N(C)C(=O)C1C [BID1870] (first compound 0.0004 µM, partner dose 0.2 µM) reads 107%. As for `Nc1nc(F)nc2c1ncn2[C@@H]1O[C@H](CO)[C@@H](O)[C@@H]1O` [fludarabine] + N#Cc1c(O)c2c(-c3ccc(-c4ccccc4O)cc3)csc2[nH]c1=O [A769662] (first compound 0.2 µM, partner dose 2 µM), the cell count is 100%.

`Nc1ccn([C@@H]2O[C@H](CO)[C@@H](O)C2(F)F)c(=O)n1` [gemcitabine] + Cc1cc([N+](=O)[O-])ccc1NS(=O)(=O)c1cc(Cl)ccc1Cl [FH535] (first compound 0.0004 µM, partner dose 1 µM) gave a cell count of 91.6%.

Take `Nc1ccn([C@@H]2O[C@H](CO)[C@@H](O)C2(F)F)c(=O)n1` [gemcitabine] + Cc1cc(N2CCOCC2)cc2[nH]c(-c3c(NC[C@@H](O)c4cccc(Cl)c4)cc[nH]c3=O)nc12 [BMS536924] (first compound 0.0004 µM, partner dose 0.2 µM): the cell count stood at 107%.

In turn, `Nc1nc(F)nc2c1ncn2[C@@H]1O[C@H](CO)[C@@H](O)[C@@H]1O` [fludarabine] + CO[C@@H]1[C@H](N(C)C(=O)c2ccccc2)C[C@H]2O[C@]1(C)n1c3ccccc3c3c4c(c5c6ccccc6n2c5c31)C(=O)NC4 [Midostaurin] (first compound 0.2 µM, partner dose 0.08 µM) returned a cell count of 79.3%.

`Nc1ncn([C@H]2C[C@H](O)[C@@H](CO)O2)c(=O)n1` [decitabine] + O=C1NC(=O)/C(=C/c2ccc(-c3ccc(F)cc3O)o2)S1 [AS252424] (first compound 0.1 µM, partner dose 1 µM) had a cell count of 79.3%.

In turn, `Nc1ncn([C@H]2C[C@H](O)[C@@H](CO)O2)c(=O)n1` [decitabine] + CC(C)(C)c1cnc(CSc2cnc(NC(=O)C3CCNCC3)s2)o1 [SNS-032] (first compound 0.1 µM, partner dose 0.01 µM) yielded a cell count of 67.9%. `Nc1ccn([C@@H]2O[C@H](CO)[C@@H](O)C2(F)F)c(=O)n1` [gemcitabine] + COc1ccc2c(c1)CCC1C2CCC2(C)C(NCCCCCCN3C(=O)C=CC3=O)CCC12 [U73122] (first compound 0.0004 µM, partner dose 0.4 µM) yielded a cell count of 104%. `Nc1ncn([C@H]2C[C@H](O)[C@@H](CO)O2)c(=O)n1` [decitabine] + COc1cc2c(Oc3ccc4[nH]c(C)cc4c3F)ncnc2cc1OCCCN1CCCC1 [cediranib] (first compound 0.1 µM, partner dose 0.4 µM) returned a cell count of 82.5%.

`Nc1ncn([C@H]2C[C@H](O)[C@@H](CO)O2)c(=O)n1` [decitabine] + CN(C)S(=O)(=O)c1ccc2c(c1)/C(=C/c1cc3c([nH]1)CCCC3)C(=O)N2 [SU6656] (first compound 0.1 µM, partner dose 0.4 µM) came in with a cell count of 69.7%. For the compound `CC(=O)O[C@@]12CO[C@@H]1C[C@H](O)[C@@]1(C)C(=O)[C@H](O)C3=C(C)[C@@H](OC(=O)[C@H](O)[C@@H](NC(=O)OC(C)(C)C)c4ccccc4)C[C@@](O)([C@@H](OC(=O)c4ccccc4)[C@H]21)C3(C)C` [Docetaxel] + COc1cc(N2CCC(N3CCN(C)CC3)CC2)ccc1Nc1ncc(Cl)c(Nc2ccccc2S(=O)(=O)C(C)C)n1 [NVP-TAE684] (first compound 0.0001 µM, partner dose 0.08 µM), the cell count came out at 57.5%.
